# The whole screen tested about 51,000 compounds, of which about 600 (1.2%) were called active. Inconclusive results, whose numbers are uncertain, are shown with a selection of clear calls. No stated cut-off is given here; in the data, active means potency below about 11 µM; inconclusive means mostly about 12 µM to 25 µM; inactive means weaker than that;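 the screen sought inhibitors and activators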. No potency is given beside an inconclusive call; the fits are too rough.
# Tested on: pyruvate kinase (Bacillus stearothermophilus)
# Assay: Pyruvate Kinase
# Conditions: purified pyruvate kinase, luminescence ATP production; ribose 5-phosphate activator present at AC10
# Outline: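 Partially purified enzyme (10 nM) converted ADP (0.1 mM) plus PEP (2 mM) to ATP in imidazole pH 7.2 with KCl, MgCl2 and 0.7 nM ribose 5-phosphate, 2 h at room temperature; ATP was read by luciferase luminescence, normalized to activator and inhibitor controls.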
# Potency means the concentration at half of the fitted maximal effect.
row,Compound,Potency
1,O=C(OCC(=O)c1c[nH]c2ccccc12)c1ccco1,inconclusive [decreasing]
2,COc1ccc(S(=O)(=O)NCc2ccco2)c2ccccc12,inconclusive [increasing]
3,Cn1nnc(NC(=O)c2ccc(C(C)(C)C)cc2)n1,inconclusive [decreasing]
4,Nc1c(S(=O)(=O)c2ccccc2)c2nc3ccccc3nc2n1/N=C/c1cccc(O)c1,inconclusive [decreasing]
5,O=S(=O)(Nc1nccs1)c1cc(Cl)ccc1Cl,inconclusive [increasing]
6,O=C(c1ccc2c3c(cccc13)CC2)N1CCOCC1,inconclusive [increasing]
7,CCN(CC)C(=O)N1CCN(S(=O)(=O)c2ccc(C)c(C)c2)CC1,inconclusive [increasing]
8,Cc1ccc(C(=O)Oc2ccc3c(c2)ncn3C)cc1,inconclusive [decreasing]
9,CCCc1nc2sc3c(SCC(=O)NCc4ccco4)ncnc3c2c2c1CCC2,inconclusive [increasing]
10,Cc1cccc(OCc2nc(-c3nonc3N)no2)c1C,inactive: > 57 µM
11,Cc1csc(N2CCc3ccccc32)n1,inconclusive [decreasing]
12,Cc1nn2c(c1-c1ccccc1)NC1=C(C(=O)CCC1)C2c1cccnc1 (configuration not stated),inactive: > 57 µM
13,O=C(COC(=O)c1ccccn1)Nc1c(Cl)cccc1Cl,inactive
14,Cc1cccc(-n2nnc(C(=O)NC3CCCc4ccccc43)c2N)c1 (configuration not stated),inconclusive [increasing]
15,COc1cc(C(=O)Nc2ccc3c(c2)OCCO3)ccc1OC(F)F,inconclusive [decreasing]
16,COc1ccccc1C(=O)Nc1cccc(-c2cn3ccsc3n2)c1,inconclusive [decreasing]
17,c1ccc(CSc2nnnn2-c2cccc3ccccc23)nc1,active: 7.36 µM
18,O=S(=O)(Nc1ncccn1)c1ccc(Nc2ncnc3ccccc23)cc1,inconclusive [increasing]
19,COc1ccc(C(=O)N2CCN(S(=O)(=O)c3cc(Cl)ccc3OC)CC2)cc1,inconclusive [increasing]
20,O=C(c1ccc(Br)cc1)C1CCc2occc2C1=O (configuration not stated),inconclusive [increasing]
21,C1=Nc2c(Nc3ccccc3)ncnc2Oc2ccccc21,inconclusive [decreasing]

row,Compound,Potency
1,CCOc1cc(C(=O)NC)cc(OCC)c1OCC,inactive: > 57 µM
2,Cc1ccc(-n2nnnc2SCC(N)=O)c(C)c1,inconclusive [increasing]
3,CC(C)(C)n1ncc2c(=O)n(Cc3ccc(Cl)cc3Cl)cnc21,active: 2.88 µM
4,O=S(=O)(c1cccc2cccnc12)N1CCOCC1,inconclusive [increasing]
5,CCS(=O)(=O)CCSc1nc2ccccc2s1,inconclusive [increasing]
6,COc1ccccc1N1CCN(S(=O)(=O)c2ccc3c4c(cccc24)C(=O)N3C)CC1,inconclusive [increasing]
7,CCN(CCCNC(=O)C1CCC(=O)N1C1CCCC1)c1cccc(C)c1 (configuration not stated),inactive: > 57 µM
8,Oc1ccccc1-c1cc(-c2cccc(F)c2)n[nH]1,inconclusive [decreasing]
9,COc1ccc2nc(SCC(N)=O)cc(C)c2c1,inconclusive [decreasing]
10,O=S(=O)(c1ccccc1)N1CCN(C2CCCCCCC2)CC1,inactive: > 57 µM
11,O=C(Nc1cccc(Oc2ccc3c(c2)C(=O)NC3=O)c1)c1ccco1,inconclusive [increasing]
12,CSc1ccccc1NC(=O)CSc1nnnn1-c1ccccc1SC,inconclusive [increasing]
13,CC(C)(C)C(=O)c1sc(Nc2ccccc2)nc1N,inconclusive [decreasing]
14,NC(=O)c1nc(N2CCOCC2)nc(N2CCOCC2)n1,inactive: > 57 µM
15,Cc1cc(C)nc(N2CCCC(C(=O)NCCc3ccccc3F)C2)n1 (configuration not stated),active: 3.16 µM
16,O=C(Nc1ccc2c(c1)OCO2)Nc1cnccn1,inactive: > 57 µM
17,O=C(CC(Nc1ccccc1)C(=O)O)c1ccccc1 (configuration not stated),active: 10.4 µM
18,c1ccc2c(-c3nc(-c4ccncc4)no3)cccc2c1,inactive: > 11.4 µM
19,CCOc1ccc(OCc2cccc(C(=O)O)c2)cc1,active: 0.761 µM
20,CC(=O)N=C(N)Sc1nc2ccccc2[nH]1,inconclusive [decreasing]
21,Cc1cc(NC(=O)COC(=O)CSCc2ccc(Cl)c(Cl)c2)no1,inconclusive [increasing]

row,Compound,Potency
1,CCC(=O)N1CCc2cc(OC)c(OC)cc2C1COc1ccc(C(=O)OC)cc1 (configuration not stated),inactive: > 57 µM
2,Cc1c(C(=O)NCCCN2CCOCC2)sc2nc(-c3ccc(F)cc3)cn12,inconclusive [decreasing]
3,Cc1ccc(S(=O)(=O)N2CCCC2C(=O)Nc2cc(C)on2)cc1 (configuration not stated),inconclusive [increasing]
4,CCCC1C(c2ccco2)NC(c2ccco2)CC1(C)O (configuration not stated),inconclusive [decreasing]
5,Cc1ccc(S(=O)(=O)NC(C)(C)CSc2nnc(N)s2)cc1,inconclusive [increasing]
6,c1cncc(-c2nc(-c3ccc4c(c3)OCO4)cs2)c1,inconclusive [decreasing]
7,COc1ccc(-c2cc(O)cc(O)c2)cc1,inconclusive [decreasing]
8,CCCc1cc(C(=O)Nc2nccs2)cs1,inconclusive [decreasing]
9,CCCC(c1nnnn1Cc1ccc(F)cc1)N1CCN(C2CCCCC2)CC1 (configuration not stated),inactive: > 57 µM
10,CCCSc1nnc2n(-c3ccccc3OC)c(=O)c3c4c(sc3n12)CCC4,inconclusive [decreasing]
11,Cc1nc2nc(C)n(-c3ccccc3)c2s1,inconclusive [decreasing]
12,Cc1nn(Cc2ccccc2)c(Cl)c1C(=O)OCc1nnc(-c2ccc(Cl)cc2)o1,inconclusive [decreasing]
13,CCOC(=O)c1ccc(Nc2cc(C)nc3ncnn23)cc1,inconclusive [decreasing]
14,N#CC1=C(SCc2ccccc2Cl)NC(=O)C(C(N)=O)C1 (configuration not stated),inconclusive [increasing]
15,CCOC(=O)C1=C(CSc2nc(-c3ccncc3)ccc2C#N)OC(N)=C(C#N)C1c1cccnc1 (configuration not stated),inconclusive [decreasing]
16,Cc1cc(C)n(C(=O)C2CCCN2S(=O)(=O)c2ccc(Cl)cc2)n1 (configuration not stated),inconclusive [increasing]
17,COc1cc(-c2nn3c(COc4ccccc4)nnc3s2)cc(OC)c1OC,inactive: > 25.6 µM
18,CCn1c(CSc2nc3ccccc3s2)nnc1SCC(=O)c1ccc2c(c1)OCCO2,inconclusive [increasing]
19,CC(=O)c1cccc(S(=O)(=O)N2CCC(n3nnc4cc(F)ccc43)CC2)c1,inconclusive [increasing]
20,Cc1ccc(C2C(C#N)=C(N)SC(N)=C2C#N)c(C)c1,inactive: > 57 µM
21,O=C(NCc1ccco1)c1ccc2c(c1)C(=O)c1ccccc1-2,inconclusive [decreasing]

row,Compound,Potency
1,O/N=C1\CC/C(=N\O)c2nn(-c3ccc(Cl)cc3Cl)nc21,inconclusive [increasing]
2,CN1CCN(CCCNC(=O)CCCOc2cc(=O)n(C)c3ccccc23)CC1,inactive: > 57 µM
3,COc1ccc(NS(=O)(=O)c2ccc(OC)c3ccccc23)cn1,inconclusive [increasing]
4,CCOc1ccc(CCNC(=O)Cc2nn[nH]n2)cc1OCC,inactive: > 57 µM
5,CCOc1ccc(C(=O)Nc2cccc(C)n2)cc1,active: 9.78 µM
6,Cc1ccc(S(=O)(=O)Nc2ccc3nc(N)sc3c2)cc1,inconclusive [increasing]
7,c1ccc(-c2ccc(-n3ccnc3)cc2)cc1,inconclusive [decreasing]
8,CN(C)c1ccc(NC(=O)c2sc(SCC(=O)Nc3nccs3)nc2N)cc1,active: 10 µM
9,COc1cccc(OCC(=O)Nc2ccccc2C(N)=O)c1,inconclusive [decreasing]
10,OC(Cn1cncn1)c1ccc(Cl)cc1Cl (configuration not stated),inconclusive [increasing]
11,CN(Cc1nc(-c2ccncc2)no1)S(=O)(=O)c1ccccc1,inactive: > 57 µM
12,C=CCOn1c(=O)c(-c2cc3ccccc3o2)[n+]([O-])c2ccccc21,inconclusive [decreasing]
13,Nc1nc(NCc2cccs2)nn1-c1ccccc1,inactive: > 57 µM
14,CCSc1nc2sc3c(c2c2nnc(SCC(=O)NCc4ccco4)n12)CCCC3,inconclusive [decreasing]
15,C=CCn1c(SCC(=O)N2CCOCC2)nc2scc(-c3ccco3)c2c1=O,inactive: > 57 µM
16,Nc1nc2c3ccccc3nc(C3CC3)n2n1,inconclusive [decreasing]
17,Cc1cccc(NC(=O)CCNS(=O)(=O)c2cccc3nsnc23)c1,inconclusive [increasing]
18,Cc1nn2c(-c3ccc(Cl)cc3Cl)nnc2s1,inconclusive [increasing]
19,Cc1cccc(-c2nnc3n2N=C(c2ccccc2Br)CS3)c1,inconclusive [increasing]

# — PubChem BioAssay AID361 (National Center for Advancing Translational Sciences (NCATS), 2006)
